Results published in ChEMBL document CHEMBL5532667 (J Med Chem, 2024).
Values after ≈ are worked out from the molar mass of the structure shown.

Key:
in vivo [1] = settings: C57BL/6, mouse, iv, 1 mg/kg
in vivo [2] = settings: C57BL/6, mouse, iv, 1 mg/kg; remark: listed apart in the source
in vivo [3] = settings: C57BL/6, mouse, iv, 1 mg/kg; remark: listed apart in the source
in vivo [4] = settings: C57BL/6, mouse, iv, 1 mg/kg; remark: listed apart in the source
in vitro [5] = settings: mouse, microsomes
in vitro [6] = settings: human, microsomes
in vitro [7] = settings: mouse, microsomes; remark: listed apart in the source
in vivo [8] = settings: C57BL/6, mouse, brain, iv, 1 mg/kg
in vivo [9] = settings: C57BL/6, mouse, iv, 1 mg/kg; remark: listed apart in the source
in vitro [10] = settings: human, microsomes; remark: listed apart in the source
NIH3T3 = assay: cells; settings: Mus musculus, BALB/c, NIH3T3, light or radiation study
in vitro [11] = settings: mouse, nih3t3

SMILES	clearance at 24 h (in vivo [1])	Vd at 24 h (in vivo [2])	AUC(0-t) at 24 h (in vivo [3])	C0 at 24 h (in vivo [4])	half-life at 1 h, 1 µM (in vitro [5])	half-life at 1 h, 1 µM (in vitro [6])	microsomal CLint at 1 h, 1 µM (in vitro [7])	Kp at 24 h (in vivo [8])	half-life at 24 h (in vivo [9])	microsomal CLint at 1 h, 1 µM (in vitro [10])	IC50 (NIH3T3)	IC50 at 1 h (in vitro [11])
C[C@](O)(CN1CC2CC(C1)N2c1ccc(C#N)cc1)C(=O)Nc1ccc(C#N)c(C(F)(F)F)c1	35.2 mL/min/kg	1.14 L/kg	661 ng·h/mL	–	–	–	–	–	–	–	–	–
C[C@](O)(CN1CCN(c2cnc(C#N)nc2)CC1)C(=O)Nc1ccc(C#N)c(C(F)(F)F)c1	13.3 mL/min/kg	3.33 L/kg	1280 ng·h/mL	884 ng/mL	25.6 min	12.1 min	54.2 µL/min/mg	0.15	232 min	114 µL/min/mg	–	–
C[C@](O)(CN1CC2CCC(C1)N2c1ccc(C#N)cc1)C(=O)Nc1ccc(C#N)c(C(F)(F)F)c1	11 mL/min/kg	2.64 L/kg	1470 ng·h/mL	1240 ng/mL	40 min	16.9 min	34.6 µL/min/mg	–	241 min	82.2 µL/min/mg	–	–
C[C@](O)(CN1CCN(c2ccc(F)cc2)CC1)C(=O)Nc1ccc(C#N)c(C(F)(F)F)c1	–	–	–	–	20.1 min	9 min	69 µL/min/mg	–	–	154 µL/min/mg	–	–
CC/C(=C(\c1ccccc1)c1ccc(OCCN(C)C)cc1)c1ccccc1 [TAMOXIFEN]	–	–	–	–	–	–	–	–	–	–	10.7 µg/mL (≈ 28.7 µM)	13 µg/mL (≈ 35.1 µM)
